Binding data for two molecules are collected here from PMC5612953, “Stable MOB1 interaction with Hippo/MST is not essential for development and tissue growth control” (Nature Communications, 2017).

The chains behind the UniProt entries cited, without tags or fusion partners.
UniProt Q15208: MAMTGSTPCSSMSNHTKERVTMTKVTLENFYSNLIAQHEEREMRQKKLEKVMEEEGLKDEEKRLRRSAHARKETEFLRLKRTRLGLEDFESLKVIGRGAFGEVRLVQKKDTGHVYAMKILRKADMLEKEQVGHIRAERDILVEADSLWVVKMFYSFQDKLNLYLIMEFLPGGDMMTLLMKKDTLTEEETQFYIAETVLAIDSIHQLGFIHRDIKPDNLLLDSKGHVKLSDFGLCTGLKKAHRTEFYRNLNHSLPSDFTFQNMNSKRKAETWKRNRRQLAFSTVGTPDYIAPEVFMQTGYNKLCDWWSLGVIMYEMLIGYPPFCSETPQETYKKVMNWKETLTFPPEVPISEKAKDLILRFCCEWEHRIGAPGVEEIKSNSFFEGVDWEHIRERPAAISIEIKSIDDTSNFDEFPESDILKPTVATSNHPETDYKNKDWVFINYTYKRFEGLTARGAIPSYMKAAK

Results are given in words; binding and its absence hold for the method and conditions named. Binding seen in cells or lysates may run through a third protein. Some binding calls cover weakened binding; strength is not graded here. Tags and fused reporters may be left off the sequences shown.

Assay [1] addresses T1, full-length HA-MST2 wild-type (human) (UniProt Q13188).
T1 sequence: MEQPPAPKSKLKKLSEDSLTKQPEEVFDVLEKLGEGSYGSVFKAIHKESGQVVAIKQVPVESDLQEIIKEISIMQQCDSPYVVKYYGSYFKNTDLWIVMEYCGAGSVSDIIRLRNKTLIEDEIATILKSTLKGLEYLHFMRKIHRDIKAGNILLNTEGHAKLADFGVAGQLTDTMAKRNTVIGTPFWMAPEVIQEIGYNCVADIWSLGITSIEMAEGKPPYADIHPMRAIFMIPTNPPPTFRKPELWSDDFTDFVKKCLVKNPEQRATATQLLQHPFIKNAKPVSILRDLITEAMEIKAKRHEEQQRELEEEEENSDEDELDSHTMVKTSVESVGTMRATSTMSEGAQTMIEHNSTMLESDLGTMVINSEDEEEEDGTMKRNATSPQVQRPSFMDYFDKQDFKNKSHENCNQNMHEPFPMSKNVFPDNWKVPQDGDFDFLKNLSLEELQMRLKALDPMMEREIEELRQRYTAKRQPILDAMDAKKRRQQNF
Nature of the assay: co-IP; three additional co-immunoprecipitation conditions: RIPA, PBS-E or standard lysis buffer (Supplementary Fig. 8); MOB1 with human MST2.

In assay [2] the target is T2, HA-tagged wild-type human LATS1 (human) (UniProt O95835).
T2 sequence: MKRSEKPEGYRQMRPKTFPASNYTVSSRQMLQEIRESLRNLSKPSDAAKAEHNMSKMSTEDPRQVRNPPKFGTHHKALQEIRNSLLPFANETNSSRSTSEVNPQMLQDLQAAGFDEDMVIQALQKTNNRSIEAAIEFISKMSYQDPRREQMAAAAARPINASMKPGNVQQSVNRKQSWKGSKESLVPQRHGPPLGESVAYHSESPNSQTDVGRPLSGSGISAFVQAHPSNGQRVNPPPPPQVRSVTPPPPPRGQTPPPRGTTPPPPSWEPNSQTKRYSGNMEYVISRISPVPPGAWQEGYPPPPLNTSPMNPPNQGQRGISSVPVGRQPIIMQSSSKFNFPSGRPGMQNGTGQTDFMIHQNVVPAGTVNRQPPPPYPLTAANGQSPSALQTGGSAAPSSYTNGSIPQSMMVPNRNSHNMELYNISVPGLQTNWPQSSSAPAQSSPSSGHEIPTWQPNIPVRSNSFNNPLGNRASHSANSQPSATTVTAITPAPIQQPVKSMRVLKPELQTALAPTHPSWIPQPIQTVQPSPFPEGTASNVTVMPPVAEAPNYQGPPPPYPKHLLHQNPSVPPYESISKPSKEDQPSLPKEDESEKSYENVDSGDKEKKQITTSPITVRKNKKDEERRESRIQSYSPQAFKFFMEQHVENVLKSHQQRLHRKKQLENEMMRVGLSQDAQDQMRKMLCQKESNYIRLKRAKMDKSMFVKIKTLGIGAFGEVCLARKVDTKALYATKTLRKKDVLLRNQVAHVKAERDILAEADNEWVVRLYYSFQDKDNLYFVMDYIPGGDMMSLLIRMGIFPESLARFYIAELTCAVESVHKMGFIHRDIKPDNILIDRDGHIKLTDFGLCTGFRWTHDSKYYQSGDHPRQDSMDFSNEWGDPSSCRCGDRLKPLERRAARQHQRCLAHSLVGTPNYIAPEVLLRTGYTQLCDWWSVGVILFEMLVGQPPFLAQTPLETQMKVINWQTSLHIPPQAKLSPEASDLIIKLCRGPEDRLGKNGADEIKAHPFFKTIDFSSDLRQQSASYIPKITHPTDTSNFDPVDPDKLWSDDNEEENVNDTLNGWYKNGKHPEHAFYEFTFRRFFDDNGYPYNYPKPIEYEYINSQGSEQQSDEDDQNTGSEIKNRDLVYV
Nature of the assay: co-IP; HEK293 cells co-expressing myc-MOB1A variants and HA-tagged kinases; IP with anti-HA (12CA5), blot anti-myc; low-stringency buffer (30 mM HEPES pH 7.4, 20 mM KCl, 1% TX-100).

For assay [3], the target named is HA-tagged wild-type human NDR1 (human) (UniProt Q15208). Described as above.
The target of assay [4] is T3, full-length HA-MST1 wild-type (human) (UniProt Q13043).
T3 sequence: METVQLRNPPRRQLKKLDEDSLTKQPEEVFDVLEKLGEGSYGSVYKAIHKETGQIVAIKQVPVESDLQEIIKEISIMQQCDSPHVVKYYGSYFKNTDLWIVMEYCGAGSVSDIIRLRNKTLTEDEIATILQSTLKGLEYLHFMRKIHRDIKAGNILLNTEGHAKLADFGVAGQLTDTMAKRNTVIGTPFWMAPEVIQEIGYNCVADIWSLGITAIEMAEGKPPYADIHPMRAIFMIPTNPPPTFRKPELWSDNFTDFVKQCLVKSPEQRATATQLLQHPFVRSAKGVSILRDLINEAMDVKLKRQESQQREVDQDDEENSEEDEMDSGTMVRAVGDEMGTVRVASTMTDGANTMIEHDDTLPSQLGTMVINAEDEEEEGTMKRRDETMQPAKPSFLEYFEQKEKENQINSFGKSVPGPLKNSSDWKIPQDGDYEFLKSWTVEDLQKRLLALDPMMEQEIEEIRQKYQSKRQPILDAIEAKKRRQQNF
The description is as above.

B1: myc-tagged full-length human MOB1A wild-type (HEK293) (protein, UniProt Q9H8S9 1-216)
chain: MSFLFSSRSSKTFKPKKNIPEGSHQYELLKHAEATLGSGNLRQAVMLPEGEDLNEWIAVNTVDFFNQINMLYGTITEFCTEASCPVMSAGPRYEYHWADGTNIKKPIKCSAPKYIDYLMTWVQDQLDDETLFPSKIGVPFPKNFMSVAKTILKRLFRVYAHIYHQHFDSVMQLQEEAHLNTSFKHFIFFVQEFNLIDRRELAPLQELIEKLGSKDR
With B1, the binding result in assay [1], in assay [2], in assay [3] and in assay [4] was “binds” in each case.

B2: myc-tagged full-length human MOB1A(K104E/K105E) (HEK293) (protein, UniProt Q9H8S9 1-216)
chain: MSFLFSSRSSKTFKPKKNIPEGSHQYELLKHAEATLGSGNLRQAVMLPEGEDLNEWIAVNTVDFFNQINMLYGTITEFCTEASCPVMSAGPRYEYHWADGTNIEEPIKCSAPKYIDYLMTWVQDQLDDETLFPSKIGVPFPKNFMSVAKTILKRLFRVYAHIYHQHFDSVMQLQEEAHLNTSFKHFIFFVQEFNLIDRRELAPLQELIEKLGSKDR
For the molecule B2, the binding entry is “no binding” in assay [1], “binds” in assay [2], “binds” in assay [3] and “no binding” in assay [4].
